The supplement of paper PMC7826260
This is one part of the list. Cleavage of a single-stranded DNA pool by Rep nickase domains was read by sequencing (3 µM enzyme, 1 h, 37 °C); shown is the middle of each 90-letter strand. Values are log2 of uncut reads against the no-enzyme pool; strong cutting gives strongly negative numbers. There is no active / inactive call. Because reads are shares of a total, they shift together; where an enzyme cuts many sequences, the uncut ones exceed 0.

Tested on: T1, Rep nickase domain of tomato golden mosaic virus
T1 sequence (residues 1-124 of Rep, tag left off): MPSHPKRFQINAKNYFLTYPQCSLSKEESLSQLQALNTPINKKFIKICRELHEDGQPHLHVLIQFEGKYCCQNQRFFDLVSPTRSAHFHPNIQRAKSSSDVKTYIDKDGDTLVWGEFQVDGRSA
Test: uncleaved DNA left, log2 of reads against the no-enzyme library (log2 ratio); higher = less cleavage (more negative = more Rep cleavage of the k-mer); sequences stand for … in CTCGTCCG…ACCGGAGA
Experimental: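 A pool of 90-nt single-stranded DNAs with seven random bases just before the constant AC of the nick site (name = the seven bases) was cut by 3 µM recombinant His6-SUMO-tagged Rep nickase domain (300 nM DNA, 50 mM HEPES pH 8.0, 50 mM NaCl, 1 mM MnCl2, 1 h, 37 °C, three replicates). Uncut DNA was amplified and sequenced.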

| Sequence | uncleaved DNA left (log2) |
| --- | --- |
| ACCTGCG | -0.111 |
| ACGCCAG | -0.0601 |
| CTTGAGT | -0.0847 |
| TATAACT | -0.0257 |
| CTCCCGG | -0.0716 |
| AACGGTC | -0.00309 |
| CTACCTA | -0.0827 |
| ACGGGAC | -0.0353 |
| AGCTGAA | -0.0444 |
| CGTGGAT | -0.133 |
| GTTGTAG | 0.246 |
| CATCGAG | -0.156 |
| TACTGGA | -0.0238 |
| ACTCACA | 0.0396 |
| CGAATCT | -0.0236 |
| CATACTC | -0.0891 |
| GACTTGG | -0.019 |
| ATGGTGG | -0.106 |
| TCCACCG | -0.121 |
| ACCTGGG | -0.0291 |

| Sequence | uncleaved DNA left (log2) |
| --- | --- |
| CCCAGAT | 0.0119 |
| ATCACCA | -0.0432 |
| TCTCAAG | 0.116 |
| CATTTGC | -0.195 |
| CAGATAC | 0.0495 |
| AATCGCA | 0.0196 |
| TCCACCA | 0.00884 |
| ACTGTAT | 0.119 |
| CTTTAAA | -0.0305 |
| CTAATGC | -0.0202 |
| CGACGTG | 0.0447 |
| CGTAACG | -0.0802 |
| GCGAAGC | 0.0718 |
| TCTCCCA | -0.0658 |
| TGAGCCT | -0.109 |
| AGTGAGG | 0.117 |
| ACCGTCT | -0.0866 |
| ATACCGT | -0.0245 |
| ATTCGGG | 0.00959 |
| GTAAAAT | 0.184 |
